Reference: PubChem BioAssay AID1466 (National Center for Advancing Translational Sciences (NCATS), 2008)
Among all 200,000 compounds or so, about 10 (0.005%) were called active. Inconclusive results, whose numbers are uncertain, are shown with a selection of clear calls. Calls come from the whole dose curve; as a rule, active = well fitted inhibition curve with a large enough effect; inconclusive = small, poorly fitted or top-dose-only effect, or effect the other way, or another doubt; inactive = no such curve, though single readings can be large or run the other way. No potency is given beside an inconclusive call; the fits are too rough.

These molecules were tested against Lysosomal alpha-glucosidase (Homo sapiens) (UniProt P10253) (assay: qHTS Assay for Inhibitors of Human alpha-Glucosidase as a Potential Chaperone Treatment of Pompe Disease). Details: purified human GAA, 4-MU-alpha-glucoside fluorescence; activity change, negative = inhibition: at 76.9 µM (top of the series) unless noted.
Outline: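 Human alpha-glucosidase, 4 nM, pre-mixed with test compounds before 400 uM 4-methylumbelliferyl substrate; 20 min room temperature at pH 5.0. Fluorescence read after pH 10 stop; AC50 values from Hill-equation fits.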
Potency is the fitted concentration of half-maximal effect; tags give direction and shape of the fitted curve.
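Throughout, for activity change, negative = inhibition: plate controls were uninhibited enzyme wells for no effect and no-enzyme background for full effect.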

Row | Structure (SMILES) | Potency | activity change, negative = inhibition
1 | CC(=O)N=c1c(C#N)cc2c(=O)n3ccccc3nc2n1Cc1ccccc1 | inconclusive [activator, partial curve, poor fit] | –
2 | CC(=O)Oc1cc2oc(=O)cc(C)c2cc1OC(C)=O | inconclusive [activator, partial curve] | –
3 | CS(=O)(=O)N(CC(=O)NCc1cccnc1)C1CCCCC1 | inconclusive [activator, full curve] | –
4 | Cc1ccc(-n2c(CNc3cccc(Cl)c3)n[nH]c2=S)cc1 | – | inactive: -3.41%
5 | O=C(NC1=NCCS1)C1Cc2ccccc2CN1C(=O)c1ccccc1 (centres undefined) | – | inactive: -9.6%
6 | CCOc1cc(S(=O)(=O)n2c(C)nc3ccccc32)ccc1F | inconclusive [inhibitor, single point] | –
7 | CCOC(=O)C1=C(N)N(c2ccccc2)C(=O)C1 | inconclusive [inhibitor, single point] | –
8 | COc1cc2c(cc1OC)C(C(=O)Nc1ccc3c(c1)OCCO3)C(c1cccnc1)N(C)C2=O (centres undefined) | inconclusive [inhibitor, partial curve, poor fit] | –
9 | COc1ccc(CCN2C(=O)CC(NNc3ccc([N+](=O)[O-])cc3)C2=O)cc1OC (centres undefined) | inconclusive [inhibitor, partial curve] | –
10 | N=C1S/C(=C\c2ccc(-c3ccccc3C(=O)O)o2)C(=O)N1c1ccc2c(c1)OCO2 | inconclusive [inhibitor, full curve] | –
11 | CCN(CC)S(=O)(=O)c1ccc2c(c1)c(=O)c(C(=O)NCCCN(C)c1ccccc1)cn2C | inconclusive [inhibitor, full curve, poor fit] | –
12 | COC(=O)[C@@H]1CCCN1Cc1nc(Cc2ccc(OC)c(OC)c2)no1 | inconclusive [activator, full curve, poor fit] | –
13 | CCOC(=O)c1nn(-c2ccc(OCC)cc2)c2nc(-c3cccc(OC)c3)c(C#N)c(=O)n12 | inconclusive [activator, single point] | –
14 | COc1ccc2c(c1OC)C(=O)N(c1cccc(C)c1)C2 | inconclusive [inhibitor, single point] | –
15 | Cc1nn(CC(=O)NCc2ccccc2F)c(C)c1[N+](=O)[O-] | inconclusive [inhibitor, single point] | –
16 | COC(=O)C1=CN(C2CC2)C=C(C(=O)OC)C1c1ccc(C(=O)OC)cc1 | inconclusive [activator, partial curve] | –
17 | O=C1C2N=NN(CC(=O)N3N=C(c4ccccc4)CC3c3ccc([N+](=O)[O-])cc3)C2C(=O)N1c1ccccc1 (centres undefined) | – | inconclusive: 10.4% [activator]
18 | O=C(c1ccccc1Cl)N1CCC(n2cccc2)CC1 | inconclusive [inhibitor, full curve, poor fit] | –
19 | Cc1cc(NC(=O)c2c(-c3c(Cl)cccc3Cl)noc2C)n(C)n1 | – | inconclusive: -16.1% [inhibitor]
20 | COc1ccc(NC(=S)N2CCCC(c3nc4ccc(C)cc4[nH]3)C2)cc1 (centres undefined) | – | inconclusive: -17.9% [inhibitor]
21 | C=C(C)CNC(=S)N/N=C/C1=CCC2CC1C2(C)C (centres undefined) | – | inconclusive: -17% [inhibitor]
22 | Clc1ccc(CSc2nnc(-c3ccccn3)n2Cc2ccco2)c(Cl)c1 | inconclusive [inhibitor, single point] | –

Row | Structure (SMILES) | Potency | activity change, negative = inhibition
23 | Cc1ccc(S(=O)(=O)Nc2cccc(NC(=O)CN3CCCCC3)c2)cc1 | inconclusive [inhibitor, full curve, poor fit] | –
24 | COc1ccccc1OC(C)C(=O)Nc1nc(-c2ccc(S(=O)(=O)N3CCOCC3)cc2)cs1 (centres undefined) | inconclusive [inhibitor, full curve] | –
25 | Cc1ccc(C(=O)n2cnnc2N)cc1C | – | inconclusive: -17.3% [inhibitor]
26 | CC(C)C(=O)Nc1nnc(SCC(=O)NCc2cccs2)s1 | inconclusive [inhibitor, partial curve] | –
27 | O=C(Cn1c(-c2ccc(Cl)cc2)noc1=O)N1CCN(c2ccccc2F)CC1 | inconclusive [inhibitor, full curve, poor fit] | –
28 | Cn1ncc(N=Cc2ccccc2)c1C(=O)Nc1cccc(Cl)c1 | inconclusive [inhibitor, full curve, poor fit] | –
29 | COc1cccc(C(C)NC(=O)Nc2ccccc2Cl)c1 (centres undefined) | – | inconclusive: 15% [activator]
30 | COc1ccc(CCN2C(=O)C3C4C=CC(C3C2=O)C2C(=O)N(CCc3ccc(OC)c(OC)c3)C(=O)C42)cc1OC (centres undefined) | – | inactive: 10.6%
31 | O=C(NCc1ccco1)C(c1cccs1)N(Cc1ccccc1)C(=O)Cn1nnc2ccccc21 (centres undefined) | inconclusive [inhibitor, partial curve, poor fit] | –
32 | CCCc1cc(NCCCCO)n2c(nc3ccccc32)c1C#N | inconclusive [activator, partial curve] | –
33 | OCCNc1c2ccccc2nc2ccccc12 | inconclusive [activator, full curve, poor fit] | –
34 | COc1ccccc1NC(=O)c1cc(C)oc1C | – | inconclusive: 19.1% [activator]
35 | COc1ccc(/C=C(\C#N)C(=O)C(C)(C)n2cncn2)cc1 | – | inconclusive: 16.9% [activator]
36 | COc1ccc(-n2cccc2/C=C2\C(=N)N3N=C(c4ccco4)SC3=NC2=O)cc1 | – | inconclusive: -16% [inhibitor]
37 | Cc1nnc2sc(-c3ccc(-c4ccc(Cl)c(C(F)(F)F)c4)o3)nn12 | inconclusive [activator, partial curve, poor fit] | –
38 | N#C/C(=C/c1ccc(N2CCOCC2)o1)c1ccc(Cl)cc1 | – | inactive: -9.65%
39 | C=CCNC(=S)Nc1nc2c(cc1C(=O)OCC)CCCC2 | inconclusive [inhibitor, single point] | –
40 | CS(=O)(=O)N(CC(=O)N1CCN(c2ccccc2F)CC1)C1CCCCC1 | – | inconclusive: 9.4% [activator]
41 | N#Cc1nc(-c2ccc(Cl)cc2)oc1N1CCCCC1 | inconclusive [activator, partial curve] | –
42 | Fc1ccccc1Cc1noc(CN2CCC(OCc3cccnc3)CC2)n1 | – | inconclusive: 23.3% [activator]
43 | Cc1cccc(C)c1NC(=O)N1CCC(n2c(=O)[nH]c3ccccc32)CC1 | – | inconclusive: -15% [inhibitor]
44 | O=C1OC(/C(=C\Nc2ccc(F)cc2F)[N+](=O)[O-])c2ccccc21 (centres undefined) | inconclusive [inhibitor, single point] | –

Row | Structure (SMILES) | Potency | activity change, negative = inhibition
45 | Cc1cc(C)cc(NC(=O)N2CCCN(Cc3c(F)cccc3Cl)CC2)c1 | inconclusive [inhibitor, single point] | –
46 | O=C(CCC(=O)N1CCN(S(=O)(=O)c2cccc(F)c2)CC1)c1cccs1 | inconclusive [inhibitor, partial curve] | –
47 | O=C(O)c1cccc(NC(=O)c2ccc3c(c2)C(=O)N(Cc2ccco2)C3=O)c1 | – | inconclusive: 15% [activator]
48 | COc1ccccc1C(=O)N(Cc1cccs1)C1CCS(=O)(=O)C1 (centres undefined) | inconclusive [inhibitor, single point] | –
49 | CCOC(=O)c1c(N)sc2c1CCCC2 | – | inactive: 1.79%
50 | O=C(COC(=O)c1ccccc1Nc1ccccc1)Nc1ccccc1 | inconclusive [activator, single point] | –
51 | C=CCSc1nc2sc3c(c2c(=O)n1CC)CCc1ccccc1-3 | inconclusive [inhibitor, single point] | –
52 | CC(C)(C)C(=O)N(Cc1ccc(Cl)cc1)Cc1cccnc1 | – | inconclusive: -22.4% [inhibitor]
53 | N#Cc1c2n(c3c(=O)n(Cc4ccccc4Cl)cnc13)CCCC2 | inconclusive [inhibitor, single point] | –
54 | CC(=O)Cc1nsc(NC(=O)c2ccc(COc3ccc(C)cc3)o2)n1 | inconclusive [inhibitor, partial curve] | –
55 | Cc1onc(C(=O)NN)c1C(=O)N1CCN(C(c2ccccc2)c2ccccc2)CC1 | – | inactive: -11.1%
56 | O=S(=O)(c1ccc2c(c1)OCCO2)N1CCN(c2ncnc3sccc23)CC1 | inconclusive [inhibitor, partial curve, poor fit] | –
57 | CCOC(=O)C1(Cc2ccccc2)CCN(Cc2ccc3c(c2)OCCO3)CC1 | inconclusive [inhibitor, partial curve] | –
58 | O=C(CN1C(=O)CSc2ncccc21)N1CCOCC1 | inconclusive [inhibitor, single point] | –
59 | O=C(NCCN1CCN(c2ccccc2)CC1)C1CCN(S(=O)(=O)c2cccc3nonc23)CC1 | inconclusive [inhibitor, single point] | –
60 | COc1ccccc1NC(=O)c1sc2ncn(Cc3ccc(C)cc3)c(=O)c2c1C | inconclusive [activator, single point] | –
61 | COc1ccc(C(=O)O/N=C(\N)Cc2ccc(Cl)c(Cl)c2)cc1OC | inconclusive [inhibitor, single point] | –
62 | COP(=O)(OC)c1nc(-c2cccc3ccccc23)oc1NCc1ccccc1 | inconclusive [activator, partial curve] | –
63 | O=C(COc1ccccc1)Nc1ccc2c(c1)C(=O)N(CC1CCCO1)C2=O (centres undefined) | inconclusive [activator, full curve] | –
64 | c1ccc2c3c(cc(N4CCOCC4)c2c1)OC1(N2CCOCC2)CCCCC1O3 (centres undefined) | inconclusive [activator, single point] | –
